Measurements from PubChem BioAssay AID686971 (National Center for Advancing Translational Sciences (NCATS), 2013).
The campaign covered roughly 360,000 compounds. About 7,500 (2.1%) were called active. The inconclusive results got no clear call from the source; some entries with a clear call stand among them for comparison. Calls follow the shape of the dose curve; as a rule, active = well fitted cell-killing curve with a large enough effect; inconclusive = small, poorly fitted or top-dose-only effect, or effect the other way, or another doubt; inactive = no such curve, though single readings can be large or run the other way. No potency is given beside an inconclusive call; the fits are too rough.

assay: qHTS for induction of synthetic lethality in tumor cells producing 2HG: qHTS for the HT-1080-IDH1KD cell line; settings: HT-1080 IDH1 knockdown viability, ATP luminescence, 48 h; activity, negative = toxicity: at 46.1 µM (top of the series) unless noted;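 as to activity, negative = toxicity: 0% = DMSO wells and -100% = cell-free medium wells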
Summary of the method: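 IDH1KD HT-1080 cells, 750/well, RPMI + 5% FBS; compound pinned after 2 h settling; 48 h, 37 °C; CellTiter-Glo luminescence; % activity normalised to DMSO and no-cell wells; curves fitted, classed by r2 and efficacy.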
Potency is read from the fitted curve at half-maximal effect; tags tell the direction and shape of the fitted curve.

Row | SMILES | Potency | activity, negative = toxicity
1 | O=C(CCNS(=O)(=O)c1ccc(Br)cc1)NCc1ccc2c(c1)OCO2 | inconclusive [cytotoxic, single point] | 
2 | N#CCc1c(C#N)c(N)nc(N2CCN(S(=O)(=O)c3ccccc3F)CC2)c1C#N | inactive | 
3 | CCc1cccc(C)c1NC(=O)CSc1nnc(-c2cc3cc(Br)ccc3o2)n1CC | inactive | 
4 | Cn1c(COc2ccccc2)nnc1SCC(=O)c1cccc([N+](=O)[O-])c1 |  | inactive: -8.22% [at 9.24 µM]
5 | COc1cc2c(cc1OC)CN(CCC(=O)c1ccc(Br)cc1)CC2 | active: 23.1 µM | 
6 | Cc1ccc(C)c(-c2cc(C(=O)Nc3nccs3)c3ccccc3n2)c1 | inconclusive [cytotoxic, single point] | 
7 | C/C=C(/C)C(=O)O[C@@H]1c2c(ccc3ccc(=O)oc23)O[C@@H]1C(C)(C)OC(=O)/C(C)=C\C | inconclusive [cytotoxic, single point] | 
8 | COC(=O)Cn1c(C(=O)N2CCCC2)cc2c1C[C@H]1CN(C(=O)c3ccccc3)[C@@](Cc3ccc(OC)cc3)(C(=O)OC)[C@@H]21 | inactive | 
9 | CC1CC(C)CN(Cc2nc(N)nc(Nc3ccc4ccccc4c3)n2)C1 (stereo not drawn) | inconclusive [cytotoxic, single point] | 
10 | Cc1cc(CNC(=O)c2cccnc2Cl)c2ccccc2n1 | inconclusive [cytotoxic, single point] | 
11 | CN1CCC(=NNC(=O)CN(c2ccc([N+](=O)[O-])cc2)S(=O)(=O)c2ccccc2)CC1 | inconclusive [cytotoxic, partial curve] | 
12 | Cc1ccc(NC(=O)c2ccc(CN3CCc4ccccc4C3)cc2)cc1 | inconclusive [cytotoxic, single point] | 
13 | CC1(C)Cc2cccc(OCC(=O)Nc3ccccc3N3CCOCC3)c2O1 | inactive | 
14 | Cc1ccc(-n2ncc(C(=O)Nc3ccc(Cl)cc3)c2C2CCNCC2)cc1C | inconclusive [cytotoxic, single point] | 
15 | Nc1[nH]c2cc([N+](=O)[O-])ccc2c1-c1ccccn1 | inconclusive [cytotoxic, partial curve] | 
16 | COc1ccc2c(CC(=O)Nc3nc(C)cs3)coc2c1 | inconclusive [cytotoxic, single point] | 
17 | C=CCNC(=O)C1CC1(c1cccc(C)c1)c1cccc(C)c1 (stereo not drawn) | inconclusive [cytotoxic, single point] | 
18 | CN(C)C(=O)c1cccc(-c2cnc3c(NC=O)cc(-c4ccc(F)cc4)cn23)c1 | active: 23.1 µM | 
